Laboratory results taken from patent EP0252380B1, “Antibiotic LL-E19020 alpha and beta” (AMERICAN CYANAMID COMPANY, priority 1986, dated 1988).

System: Eimeria mitis
Experiment: Anticoccidial embryonated egg assay - E. mitis
Parameters: key: T = Toxic; A = Active; a = Marginal Activity; O = Inactive
Details: active = 80% or greater reduction of oocysts

| SMILES | Performance Rating (1 milligram of drug per embryo) | Performance Rating (0.25 milligrams of drug per embryo) | Performance Rating (0.5 milligrams of drug per embryo) |
| --- | --- | --- | --- |
| C/C=C/C=C/[C@@H]1O[C@](O)([C@H](CO[C@H]2C[C@H](OC)[C@H](O[C@@H]3C[C@H](OC)[C@@H](O[C@H]4C[C@H](OC)[C@H](O)[C@H](C)O4)[C@H](C)O3)[C@H](C)O2)C(=O)NC/C=C/C=C(\C)[C@H](OC)[C@@H](C)[C@@H]2C[C@H](O)[C@@H](/C=C/C=C/C=C\C(=O)O)O2)[C@@H](O)[C@H](OC(=O)Cc2ccccc2)C1(C)C [LL-E19020 beta] | O |  |  |
| C/C=C\C=C\[C@@H]1O[C@](O)([C@H](CO[C@H]2C[C@@H](OC)[C@@H](O[C@@H]3C[C@@H](OC)[C@@H](O[C@H]4C[C@H](OC)[C@H](O)[C@H](C)O4)[C@H](C)O3)[C@@H](C)O2)C(=O)NC/C=C/C=C(\C)[C@@H](OC)[C@H](C)[C@H]2C[C@H](O)[C@H](/C=C/C=C/C=C/C(=O)O)O2)[C@H](OC(=O)Cc2ccccc2)[C@H](O)C1(C)C [LL-E19020 alpha] | A | O | A |
